{"source": "PubChem BioAssay (Tox21)", "note": "Inconclusive means that the source gave no clear call. Such entries were picked first, then a sample of the others. Potencies of inconclusive entries are doubtful fits and often do not repeat. Activity calls are given as the source filed them. Calls follow the shape of the dose curve; as a rule, active = well fitted activation curve with a large enough effect in the signal ratio in the repeat runs, with a control signal flat (not every such curve was filed as active); inconclusive = weak or mixed curves, or effect the other way; inactive = no such curve, though single readings can be large or run the other way; the % refers to the signal ratio. % is scaled to controls: 0 for no effect and ±100 for the full control effect; potency is read from the fitted curve at half-maximal effect; tags tell the direction and shape of the fitted curve or compound fluorescence and quenching."}
{"target": "Androgen receptor (Homo sapiens) (UniProt P10275)", "sequence (P10275 whole entry, looked up)": "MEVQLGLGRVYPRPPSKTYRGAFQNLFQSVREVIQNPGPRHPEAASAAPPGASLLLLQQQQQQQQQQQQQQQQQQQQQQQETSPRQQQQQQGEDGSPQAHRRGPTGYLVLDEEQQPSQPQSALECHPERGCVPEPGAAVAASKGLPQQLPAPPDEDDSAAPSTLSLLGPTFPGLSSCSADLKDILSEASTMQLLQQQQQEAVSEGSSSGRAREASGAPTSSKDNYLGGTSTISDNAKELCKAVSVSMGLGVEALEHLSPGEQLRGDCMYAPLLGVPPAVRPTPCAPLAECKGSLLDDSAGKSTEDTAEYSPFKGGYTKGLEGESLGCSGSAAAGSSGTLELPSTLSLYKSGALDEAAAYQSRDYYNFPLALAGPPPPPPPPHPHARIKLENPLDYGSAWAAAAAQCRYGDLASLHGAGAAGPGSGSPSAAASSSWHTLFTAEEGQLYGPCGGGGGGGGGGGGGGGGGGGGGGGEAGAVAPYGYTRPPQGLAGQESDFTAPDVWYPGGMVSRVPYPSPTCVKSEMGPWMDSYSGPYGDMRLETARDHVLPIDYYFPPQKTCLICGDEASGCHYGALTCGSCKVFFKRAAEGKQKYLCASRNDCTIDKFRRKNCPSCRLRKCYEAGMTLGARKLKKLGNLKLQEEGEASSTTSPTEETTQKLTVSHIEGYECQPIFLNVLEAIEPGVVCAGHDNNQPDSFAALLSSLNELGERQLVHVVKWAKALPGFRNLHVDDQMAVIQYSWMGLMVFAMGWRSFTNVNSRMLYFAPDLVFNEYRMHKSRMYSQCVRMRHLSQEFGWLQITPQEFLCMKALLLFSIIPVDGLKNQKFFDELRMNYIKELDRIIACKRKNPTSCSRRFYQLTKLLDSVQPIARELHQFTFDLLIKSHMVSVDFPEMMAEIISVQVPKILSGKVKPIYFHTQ", "assay": "qHTS assay to identify small molecule agonists of the androgen receptor (AR) signaling pathway (AID 743036)", "details": "HEK293 AR-UAS-bla GripTite, beta-lactamase FRET ratio, 16 h; activation: at 62.4 µM (top of the series) unless noted", "procedure,_shortened": "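Quantitative HTS of the Tox21 10K library in HEK293 cells bearing a stably integrated UAS-controlled beta-lactamase reporter. Compound exposure lasted 16 h at 37C. Reporter activity was detected by FRET substrate fluorescence after 2 h at room temperature.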"}
{"smiles": "Cc1ccc(C)c(OCCCC(C)(C)C(=O)O)c1", "Potency": "inconclusive: 24.7 µM [rising, partial curve, poor fit]"}
{"smiles": "CCCCC(=O)OCC(=O)[C@H]1[C@H](C)C[C@H]2[C@@H]3C[C@H](F)C4=CC(=O)C=C[C@]4(C)[C@@]3(F)[C@@H](O)C[C@@]21C", "Potency": "inconclusive: 10.7 µM [falling, partial curve, poor fit]"}
{"smiles": "CC(C)CC(=O)CC(C)CC(C)C", "note": "(stereo not given)", "Potency": "inactive"}
{"smiles": "O=C(c1ccc(O)cc1)c1ccc(O)cc1", "Potency": "inconclusive: 8.71 µM [rising, full curve, poor fit]"}
{"smiles": "NC(=O)COCCN1CCN(C(c2ccccc2)c2ccc(Cl)cc2)CC1", "note": "(stereo not given)", "Potency": "inconclusive: 12 µM [rising, partial curve, poor fit]"}
{"smiles": "CCCC(=O)c1ccccc1", "activation": "inconclusive: 18.1%"}
{"smiles": "CCOC(=O)C(C)Oc1ccc(Oc2nc3ccc(Cl)cc3o2)cc1", "note": "(stereo not given)", "activation": "inconclusive: -8.37%"}
{"smiles": "CCN(Cc1ccccc1)c1ccccc1", "activation": "inactive: 0.225%"}
{"smiles": "CC(C(=O)O)c1ccc(C(=O)c2ccccc2)s1", "note": "(stereo not given)", "Potency": "inconclusive: 8.11 µM [rising, single point]"}
{"smiles": "C#CCN[C@@H]1CCc2ccccc21", "activation": "inactive: 10.1%"}
{"smiles": "CC(C)CC(=O)C1C(=O)c2ccccc2C1=O", "activation": "inactive: 12.6%"}
{"smiles": "CN1CCN(C(c2ccccc2)c2ccccc2)CC1", "activation": "inactive: 8.52% [at 29.2 µM]"}
{"smiles": "CC1=C2[C@H](/C=C(\\C)C(=O)O)CC[C@@H](C)[C@H]2CC1", "activation": "inactive: -19.6% [at 79.1 µM]"}
{"smiles": "O=C(Nc1ccccc1)c1cc([N+](=O)[O-])ccc1Cl", "activation": "inactive: -13.4%"}
{"smiles": "CN(C)Cc1cc(CN(C)C)c(O)c(CN(C)C)c1", "Potency": "inactive"}
{"smiles": "Clc1cccc(C(c2ccc3nc[nH]c3c2)n2ccnc2)c1", "note": "(stereo not given)", "Potency": "inconclusive: 21.3 µM [falling, partial curve, poor fit]"}
{"smiles": "CCCCCCCCOCCCN", "Potency": "inconclusive: 54.9 µM [single point]"}
{"smiles": "CC1=C(CC(=O)O)c2cc(F)ccc2/C1=C\\c1ccc(S(C)(=O)=O)cc1", "Potency": "inconclusive: 3.79 µM [rising, full curve]"}
{"smiles": "C[C@@H](c1ncncc1F)C(O)(Cn1cncn1)c1ccc(F)cc1F", "note": "(stereo not given in full)", "activation": "inconclusive: 3.02%"}
{"smiles": "CCCN(CCC)S(=O)(=O)c1ccc(C(=O)O)cc1", "Potency": "inactive"}
{"smiles": "O=S(=O)(O)c1cccc(S(=O)(=O)O)c1", "activation": "inconclusive: 20.4%"}
{"smiles": "COCCOCCOCCOCCOC", "activation": "inconclusive: 23.9%"}
{"smiles": "CCCCCCCCCCCCCCCCOS(=O)(=O)O", "activation": "inactive: 0.139%"}
{"smiles": "COc1ccc(CCC(=O)c2c(O)cc(O[C@@H]3O[C@H](CO)[C@@H](O)[C@H](O)[C@H]3O[C@@H]3O[C@@H](C)[C@H](O)[C@@H](O)[C@H]3O)cc2O)cc1O", "activation": "inactive: 2.46%"}
{"smiles": "O=C1CCCCCCCCCCCC(=O)OCCO1", "Potency": "inconclusive: 3.09 µM [rising, full curve, poor fit]"}
{"smiles": "CC(C)c1ccc2oc3nc(N)c(C(=O)O)cc3c(=O)c2c1", "Potency": "inconclusive: 9.52 µM"}
{"smiles": "C[N+](C)(C)CCOC(N)=O", "activation": "inactive: 0.771%"}
{"smiles": "CC(C)C1OCCN1CCOC(=O)NCCCCCCNC(=O)OCCN1CCOC1C(C)C", "note": "(stereo not given)", "activation": "inactive: 10.9%"}
{"smiles": "CC[C@]12CCCN3CCc4c(n(c5ccccc45)C(=O)C1)[C@@H]32", "activation": "inconclusive: 17.3% [at 29.2 µM]"}
{"smiles": "CC1CCC(CO)CC1", "note": "(stereo not given)", "Potency": "inconclusive: 5.69 µM [activator, single point]"}
{"smiles": "O=[N+]([O-])c1cc[n+]([O-])cc1", "activation": "inconclusive: 5.19%"}
{"smiles": "Cc1cc(O)c2c(O)c3c(O)cccc3cc2c1", "Potency": "inconclusive: 10.7 µM [rising, partial curve, poor fit]"}
{"smiles": "O=C(O)c1cc(C(=O)O)c(C(=O)O)cc1C(=O)O", "activation": "inactive: -0.315%"}
{"smiles": "O=C(O)c1ccc(O)c(O)c1", "activation": "inactive: -5.83%"}
{"smiles": "CC(C)c1ccc2c(C(C)C)cc(C(C)C)c(S(=O)(=O)O)c2c1", "Potency": "inconclusive: 1.13 µM [activator, single point]"}
{"smiles": "CCN(CC)CCOC(=O)C1(c2ccccc2)CCCC1", "activation": "inactive: 0.0054%"}
{"smiles": "Nc1cc(S(=O)(=O)O)ccc1O", "activation": "inactive: 6.65%"}
{"smiles": "COc1cc(CCC(C)=O)ccc1O", "activation": "inconclusive: -17.7%"}
{"smiles": "CC(=O)OCC(=O)[C@H]1CC[C@H]2[C@@H]3CCC4=CC(=O)CC[C@]4(C)[C@H]3CC[C@]12C", "Potency": "active: 0.0301 µM"}
{"smiles": "Cc1cc(NC(=O)C(=O)O)cc(C)c1Oc1ccc(O)c2c1CCC2", "activation": "inactive: 0.338%"}
